Measured values published in patent US20170304288A1, “Formulations of Methionine Aminopeptidase Inhibitors for Treating Infectious Diseases” (Texas Southern University, priority 2013, published 2017).

Test system: C. elegans
Test: Toxicity in non-infected C. elegans
Settings: 4×10^−3 μg/mL to 4 μg/mL

Oc1c(Br)cc(Cl)c2cccnc12 [Compound 5, 7-bromo-5-chloroquinolin-8-ol]
mortality of non-infected animals: ≤ 40%
